# Where “and” joins values, the source holds several entries; their conditions need not be identical. Equal values may be shown once. In all, about 420,000 compounds went through this assay and about 50,000 (12%) were called active. Inconclusive results, whose numbers are uncertain, are shown with a selection of clear calls. Calls follow the shape of the dose curve; as a rule, active = well fitted inhibition curve with a large enough effect; inconclusive = small, poorly fitted or top-dose-only effect; inactive = flat fitted curve, though single readings scatter. A potency beside an inconclusive call is a rough fit, not a confirmed value.
# Experiment: qHTS for Inhibitors of human tyrosyl-DNA phosphodiesterase 1 (TDP1): qHTS in cells in presence of CPT; also: nearly all actives have a fitted effect of over 55% in size
# Conditions: chicken DT40 Tdp1-/-;hTDP1 cells + 20 nM CPT, ATP luminescence, 48 h; activity change, negative = growth inhibition: at 46.2 µM (top of the series) unless noted
# Procedure, shortened: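 Chicken DT40 Tdp1-/- cells complemented with human TDP1, 400 cells/well, exposed to compounds plus 20 nM camptothecin for at least 48 h at 37 C; viability read as ATP content by CellTiter-Glo luminescence.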
# % is scaled to controls: 0 for no effect and ±100 for the full control effect; potency is read from the fitted curve at half-maximal effect; tags tell the direction and shape of the fitted curve.
SMILES,Potency,"activity change, negative = growth inhibition"
CN(CCc1ccccc1)C(=O)c1ccc(NC(=O)Cc2cccc([N+](=O)[O-])c2)cc1,"inconclusive: 29.1 µM [inhibitor, single point]",–
COc1ccc(CC2C(=O)N(C)C(=O)N(C)C2=O)c(OC)c1,"inconclusive: 29.1 µM [inhibitor, single point]",–
CN(C)C(Cc1ccccc1)C(=O)c1ccc(-c2ccccc2)cc1 (stereo unspecified),"inconclusive: 29.1 µM [inhibitor, single point]",–
COc1ccccc1/C=N/N=C(/N)N[N+](=O)[O-],–,inactive: -6.21%
C[C@H]1CCCC(=O)CCC/C=C/c2cc(O)cc(O)c2C(=O)O1,–,inactive: -3.65%
O=C(CCN1CCN(CCO)CC1)N1c2ccccc2Sc2ccc(C(F)(F)F)cc21,"inconclusive: 33.5 µM [inhibitor, single point] and inconclusive: 25.9 µM [inhibitor, single point]",–
CC(C)=CCc1c(O)cc2c(c1O)C(=O)CC(c1ccc(O)cc1)O2 (stereo unspecified),active: 16.4 µM,–
CC(C)(N)Cc1ccc(Cl)cc1,"inconclusive: 26.6 µM [inhibitor, single point]",–
CN(C)C1C(=O)C(C(N)=O)=C(O)[C@@]2(O)C(=O)C3=C(O)c4c(O)ccc(Cl)c4[C@](C)(O)C3CC12 (stereo partly specified),active: 16.4 µM,–
CN1CCN(C(=O)COc2ccc(N(C)S(=O)(=O)c3ccc(F)cc3)cc2)CC1,–,inactive: 4.77%
Cc1cc(C=C(C#N)C#N)ccc1N1CCCC1,"inconclusive: 29.1 µM [inhibitor, single point]",–
CC1([N+](=O)[O-])COP(=O)(Nc2cccc(Cl)c2)OC1 (stereo unspecified),–,inactive: 2.32%
BrCC1C[n+]2c(SCc3ccccc3)nc3sc4c(c3c2O1)CCCC4 (stereo unspecified),"inconclusive: 10.3 µM [inhibitor, partial curve]",–
CCCCc1ccc(C(=O)O)nc1,"inconclusive: 33.5 µM [inhibitor, single point]",–
Cc1ccc2c(c1)C1CN(C)CCC1N2C(=O)COc1ccc(S(=O)(=O)N2CCOCC2)cc1 (stereo unspecified),–,inactive: -18.4%
CCC(=NCc1ccc2c(c1)OCO2)c1c(O)n(C2CCCCC2)c(=O)[nH]c1=O,"inconclusive: 16.4 µM [inhibitor, single point]",–
Oc1ccc(Cl)cc1CN1CCN(Cc2ccccc2)CC1,"inconclusive: 29.1 µM [inhibitor, single point]",–
Brc1ccc2[nH]cc(C=NN3CCCCCC3)c2c1,active: 23.1 µM,–
O=P(Nc1ccccc1)(Nc1ccccc1)Oc1cccc(Cl)c1,"inconclusive: 20.6 µM [inhibitor, single point]",–
COc1cccc(-n2c(-c3ccoc3)nc3ccccc3c2=O)c1,"inconclusive: 14.6 µM [inhibitor, partial curve]",–
N[C@@H](Cn1ccc(=O)n(Cc2ccc(C(=O)O)cc2)c1=O)C(=O)O,–,inactive: 16.9%
COc1ccc(C(CNC(=O)Cc2ccc(Cl)c(Cl)c2)N(C)C)cc1 (stereo unspecified),"inconclusive: 25.9 µM [inhibitor, single point]",–
Oc1ccc(Cl)cc1Cc1ccccc1,active: 30.6 µM,–
COC(=O)c1cc(C(O)(C(=O)OC)C(F)(F)F)c(/N=C/N(C)C)s1 (stereo unspecified),–,inactive: -3.73%

SMILES,Potency,"activity change, negative = growth inhibition"
CCOc1ccc(-c2cc(C)[n+](CCO)c(-c3ccc(OCC)cc3)c2)cc1,active: 1.46 µM,–
COc1cccc(C(C)(O)c2nc(-c3cccc(F)c3)cs2)c1 (stereo unspecified),"inconclusive: 25.9 µM [inhibitor, single point]",–
O=C1NCN(c2ccccc2)C12CCN(C(c1cccc3ccccc13)c1nnnn1C1CCCCC1)CC2 (stereo unspecified),active: 23.1 µM,–
CCN1CCC(NCC2CCCCC2)CC1,"inconclusive: 29.1 µM [inhibitor, single point]",–
CCc1ccc2c(c1)Sc1ccccc1CC2N1CCN(C)CC1 (stereo unspecified),"inconclusive: 18.4 µM [inhibitor, single point]",–
O=C1Nc2ccc(Br)cc2C(c2ccccc2)=NC1O (stereo unspecified),"inconclusive: 9.2 µM [inhibitor, partial curve]",–
O=C(O)Cn1cc(/C=C2\C(=O)NC(=O)N(c3ccc(Cl)cc3)C2=O)c2ccccc21,–,inactive: -3.78%
O=C(CCCOc1ccc(Cl)cc1Cl)N1CCC2(CC1)OCCO2,"inconclusive: 32.6 µM [inhibitor, partial curve, poor fit]",–
O=C(c1ccc(C(F)(F)F)cc1)C1CCCN(C2CCSCC2)C1 (stereo unspecified),"inconclusive: 29.1 µM [inhibitor, single point]",–
NC(=O)Cn1cc(C(=O)c2ccccc2)c2ccccc21,–,inactive: 20.5%
CC(C)(C)C(=O)N1Cc2cc(N3CCCCC3)ccc2-n2nncc2C1,"inconclusive: 23.1 µM [inhibitor, single point]",–
COc1ccc(-n2c(O)c(C(C)=NCc3ccc4c(c3)OCO4)c(=O)[nH]c2=O)cc1,–,inactive: 1.35%
COc1cc(CNCCc2ccc3c(c2)OCO3)cc(OC)c1OC,"inconclusive: 29.1 µM [inhibitor, single point]",–
c1ccc2c(c1)cc1ccc3cccc4ccc2c1c34,–,inactive: 3.63%
CC1=C2CCC3C4CCC(=O)[C@@]4(C)CCC3[C@]2(C)CCC1=O (stereo partly specified),–,inactive: -14.7%
CNC(=O)Oc1ccc2ncccc2c1,"inconclusive: 29.1 µM [inhibitor, single point]",–
COc1cc(-n2c(=S)[nH]c3ccccc3c2=O)c(Cl)cc1Cl,"inconclusive: 16.4 µM [inhibitor, single point]",–
Cn1c(=O)oc2cc(S(=O)(=O)N3CCCC(C(=O)N4CCN(c5cccc(Cl)c5)CC4)C3)ccc21 (stereo unspecified),active: 9.2 µM,–
C[C@@H]1CNC(=O)c2c(C(=O)Nc3ccc(CNC(=O)OC(C)(C)C)cc3)ncn21,active: 23.1 µM,–
CCCCCCn1c(=O)c(C(=O)Nc2nc(CC(=O)OCC)cs2)c(O)c2ccccc21,active: 3.66 µM,–
COC(=O)C1=C(c2ccc(OCc3ccccc3)cc2)C[C@@H]2CC[C@H]1N2C(=O)NCc1cccc(F)c1,active: 25.9 µM,–
CC(=O)OC1CCC2(C)C(CCC3C2CC(=O)C2(C)C3CC(N3CC3)C2C(C)=O)C1 (stereo unspecified),active: 7.31 µM,–
CCc1ccc(-c2nn(Cc3ccccc3)cc2C=O)cc1,"inconclusive: 29.1 µM [inhibitor, single point]",–
CCC1(c2ccccc2)CCC(=O)NC1=O (stereo unspecified),–,inactive: 3.67%

SMILES,Potency,"activity change, negative = growth inhibition"
CCOC(=O)c1c(NC(=O)C(c2ccccc2)c2ccccc2)sc2c1C1CCN2CC1,active: 20.6 µM,–
CN(Cc1ccccc1)C1CCCN(C(=O)COc2ccccc2Cl)C1 (stereo unspecified),"inconclusive: 18.4 µM [inhibitor, single point]",–
O=C(Nc1ccc2nc(SCC(=O)N3CCOCC3)sc2c1)c1ccc(Cl)cc1,"inconclusive: 6.51 µM [inhibitor, partial curve]",–
O=C1Nc2ccccc2Oc2ccccc21,–,inactive: 6.53%
CC(C)Cc1nc(N2CCNCC2)c(C#N)c2c1CCC2,"inconclusive: 29.1 µM [inhibitor, single point]",–
CCCC(CCC)C(=O)OC[N+](C)(C)CCOC(=O)C(O)(c1ccccc1)C1CCCC1 (stereo unspecified),"inconclusive: 20.6 µM [inhibitor, single point]",–
O=C1NC(=O)N(c2cccc(F)c2)C(=O)/C1=C/c1ccc(N2CCOCC2)cc1,"inconclusive: 29.1 µM [inhibitor, single point]",–
CC(C)c1ccc(OCC(=O)Nc2cc(-c3nc4ncccc4o3)ccc2Cl)cc1,"inconclusive: 5.17 µM [inhibitor, full curve]",–
COC(=O)C1=C(c2cccc(C#N)c2)C[C@@H]2CC[C@H]1N2C(=O)NCc1cc(C)oc1C(F)(F)F,"inconclusive: 29.1 µM [inhibitor, single point]",–
Cc1ccc(CCN2CC(C(=O)N3CCC4(CC3)OCCO4)CC2=O)cc1 (stereo unspecified),–,inactive: -2.23%
COc1ccc(C(=O)Nc2ccc(-c3cc(C(F)(F)F)nn3-c3ccccc3)cc2)cc1OC,active: 18.4 µM,–
CN(C)c1c([N+](=O)[O-])cc(N2C(=O)C=CC2=O)cc1[N+](=O)[O-],active: 1.3 µM,–
O=C1NC(=O)C(CCc2ccncc2)(CCc2ccncc2)C(=O)N1CCc1ccc(F)cc1,"inconclusive: 29.1 µM [inhibitor, single point]",–
C[N+](C)(C)CC#CCOC(=O)Nc1cccc(Cl)c1,"inconclusive: 29.1 µM [inhibitor, single point]",–
N#CC1c2ccccc2-n2nncc2CN1Cc1cc(Cl)cc(Cl)c1 (stereo unspecified),active: 1.64 µM,–
O=C(CNC(=O)c1ccc(Br)cc1)Nc1ccc(Br)cc1C(=O)c1ccccc1,"inconclusive: 20.6 µM [inhibitor, single point]",–
CC(c1ccccc1)n1cncc1C(=O)N1CCCC1=O (stereo unspecified),"inconclusive: 5.17 µM [inhibitor, single point]",–
O=C(O)c1cccc2nc3ccccc3nc12,"inconclusive: 23.1 µM [inhibitor, single point]",–
COc1ccccc1CN1CCN(C(=O)COc2ccc3ccccc3c2)CC1,"inconclusive: 16.4 µM [inhibitor, single point]",–
Nc1c(C(=O)NCCN2CCOCC2)c2nc3ccccc3nc2n1Cc1ccco1,"inconclusive: 20.6 µM [inhibitor, single point]",–
COc1cc2cc(c1Cl)N(C)C(=O)CC(OC(=O)C(C)N(C)C(C)=O)C1(C)OC1C(C)C1CC(O)(NC(=O)O1)C(OC)C=CC=C(C)C2 (stereo unspecified),active: 0.0461 µM,–
COc1cccc(NC(=O)C2CCN(S(=O)(=O)c3cc(-c4noc(C)n4)ccc3C)CC2)c1,active: 18.4 µM,–
COc1ccc(CNC(=O)c2sc(=O)n(Cc3ccc(C)cc3)c2C)cc1OC,"inconclusive: 16.4 µM [inhibitor, single point]",–

# Source: PubChem BioAssay AID686979 (National Center for Advancing Translational Sciences (NCATS), 2013)
